{"source": "the antibiotic and cytotoxicity screens of Wong et al. (2023)", "note": "This is one part of the list."}
{"tested_on": "HSkMC (human skeletal muscle cells)", "experiment": "cytotoxicity call (relative viability < 0.9)", "conditions": "10 µM"}
{"molecule": "Cc1noc(C)c1NC(=O)Nc1ccc2c(c1)C(=O)N([C@@H](C)CO)C[C@@H](C)[C@@H](CN(C)S(=O)(=O)c1ccccc1)O2", "cytotoxicity call": "inactive"}
{"molecule": "C=CC[C@H](CC(=O)N(CCO)Cc1ccccc1)C(=O)N[C@@H](COC(=O)[C@@H](CC=C)Cc1ccc(F)cc1)Cc1c[nH]c2ccccc12", "cytotoxicity call": "active"}
{"molecule": "C[C@@H]1CN([C@@H](C)CO)C(=O)c2cc(NC(=O)Nc3ccc(F)cc3)ccc2O[C@@H](C)CCCCO[C@@H]1CN(C)S(=O)(=O)c1ccccc1", "cytotoxicity call": "inactive"}
{"molecule": "C[C@@H]1CCCCO[C@@H](CN(C)C(=O)Nc2cccc3ccccc23)[C@@H](C)CN([C@H](C)CO)C(=O)c2cc(NC(=O)Nc3cccc4ccccc34)ccc2O1", "cytotoxicity call": "inactive"}
{"molecule": "COc1ccc(S(=O)(=O)Nc2ccc3c(c2)C(=O)N([C@@H](C)CO)C[C@@H](C)[C@@H](CN(C)Cc2ccc(Cl)c(Cl)c2)OCCCC[C@@H](C)O3)cc1", "cytotoxicity call": "active"}
{"molecule": "COc1ccc(NC(=O)N(C)C[C@@H]2OCCCC[C@@H](C)Oc3ccc(NC(=O)NC(C)C)cc3C(=O)N([C@H](C)CO)C[C@@H]2C)cc1", "cytotoxicity call": "inactive"}
{"molecule": "C[C@@H]1CN([C@@H](C)CO)C(=O)CCCn2cc(nn2)CO[C@H]1CN(C)C(=O)Nc1ccc(C(F)(F)F)cc1", "cytotoxicity call": "inactive"}
{"molecule": "C[C@H]1CN([C@@H](C)CO)C(=O)c2cccc(NC(=O)Nc3cccc4ccccc34)c2O[C@H]1CN(C)Cc1ccccc1", "cytotoxicity call": "inactive"}
{"molecule": "C[C@@H]1CN([C@@H](C)CO)C(=O)c2cc(NC(=O)Nc3ccc4c(c3)OCO4)ccc2O[C@@H](C)CCCCO[C@@H]1CN(C)Cc1ccccc1", "cytotoxicity call": "inactive"}
